Assay results as given in a collection of fitness landscapes (doi:10.1038/s41467-024-54723-y).
The full ranking holds about 18,000 sequences; the median of “TetR repression strength (sort-seq, GFP reporter)” is about 0.23, and the highest 2% start at about 0.68. The list shows a part of the results.

The sequences below were run against TetR (class B, Tn10) (UniProt P04483) (assay: TetR repression strength (sort-seq, GFP reporter) (relative to tetO2 = 1); higher = stronger repression). Conditions: E. coli.
Sequence of UniProt P04483 (P04483 whole entry): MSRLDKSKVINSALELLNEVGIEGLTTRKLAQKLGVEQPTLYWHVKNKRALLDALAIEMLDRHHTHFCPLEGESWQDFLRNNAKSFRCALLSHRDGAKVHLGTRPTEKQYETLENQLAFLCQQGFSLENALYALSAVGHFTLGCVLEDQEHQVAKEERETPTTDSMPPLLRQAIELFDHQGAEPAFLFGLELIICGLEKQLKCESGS
Outline: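 E. coli SIG10-MAX carried a low-copy plasmid library with eight randomized operator positions between a constitutive promoter and sfGFP, with TetR constitutively expressed. Cells grew 5 h at 37 °C in LB with 50 µg/mL chloramphenicol, then 10^6 cells were FACS-sorted into 13 fluorescence bins, each Illumina-sequenced. Repression strength is the top bin index plus one minus the read-weighted mean bin, divided by the wild-type operator value. Three independent transformations; variants with ≥30 reads in all replicates and CV ≤0.5 were averaged.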
With TCCCCTAAAGTGTCGGAGA the TetR repression strength was 0.111.
With TCCCTAGTAGTGCCGGAGA the TetR repression strength was 0.385.
Sequence TCCCCGGCAGTGCCTGAGA has a TetR repression strength of 0.182.
With TCCCTCCCAGTTACCGAGA the TetR repression strength was 0.363.
Sequence TCCCATCAAGTTCAAGAGA has a TetR repression strength of 0.468.
TCCCTAGGAGTGAGGGAGA showed a TetR repression strength of 0.104.
For TCCCCTACAGTTCTAGAGA, the TetR repression strength was 0.522.
Sequence TCCCTTCTAGTTGTAGAGA has a TetR repression strength of 0.441.
For TCCCCATCAGTTAGTGAGA, the TetR repression strength was 0.304.
TCCCGGAAAGTCTCAGAGA was tested, and the TetR repression strength was 0.0397.
For TCCCGCGAAGTCATGGAGA, the TetR repression strength was 0.104.
TCCCATGCAGTTGAGGAGA was tested, and the TetR repression strength was 0.201.
TCCCGTTCAGTGCGTGAGA gave a TetR repression strength of 0.145.
For TCCCTTTGAGTTTGGGAGA, the TetR repression strength was 0.168.
Work on TCCCGCAGAGTTGTTGAGA yielded a TetR repression strength of 0.217.
For TCCCACCCAGTCCCTGAGA, the TetR repression strength was 0.534.
TCCCCGAGAGTATGCGAGA showed a TetR repression strength of 0.165.
TCCCTTGTAGTCGGGGAGA gave a TetR repression strength of 0.938.
Sequence TCCCGACGAGTTCAGGAGA has a TetR repression strength of 0.128.
With TCCCTCGAAGTTTAAGAGA the TetR repression strength was 0.2.
TCCCGCGGAGTGAGAGAGA was tested, and the TetR repression strength was 0.575.
Work on TCCCACTGAGTCGGGGAGA yielded a TetR repression strength of 0.384.
With TCCCCAACAGTAGGTGAGA the TetR repression strength was 0.113.
TCCCAAAGAGTGATTGAGA was tested, and the TetR repression strength was 0.404.
For TCCCTCGGAGTGGATGAGA, the TetR repression strength was 0.213.
With TCCCGGGCAGTTACGGAGA the TetR repression strength was 0.2.
In the case of TCCCTGAGAGTTTGAGAGA, the TetR repression strength is reported as 0.208.
TCCCTGGCAGTGTACGAGA gave a TetR repression strength of 0.246.
TCCCCGCGAGTGCAAGAGA was tested, and the TetR repression strength was 0.369.
In the case of TCCCGCATAGTCGGGGAGA, the TetR repression strength is reported as 0.112.
TCCCGGCTAGTTGCGGAGA showed a TetR repression strength of 0.155.
Sequence TCCCTATCAGTCAATGAGA has a TetR repression strength of 0.625.
For TCCCCAAGAGTAGATGAGA, the TetR repression strength was 0.739.
TCCCAAATAGTGATGGAGA showed a TetR repression strength of 0.0707.
In the case of TCCCAGCTAGTATAGGAGA, the TetR repression strength is reported as 0.353.
In the case of TCCCGTATAGTCGGAGAGA, the TetR repression strength is reported as 0.138.
TCCCGAGCAGTCTTCGAGA was tested, and the TetR repression strength was 0.172.
TCCCGGCTAGTCGGCGAGA was tested, and the TetR repression strength was 0.187.
TCCCTAGGAGTTGTGGAGA was tested, and the TetR repression strength was 0.254.
Work on TCCCTCTCAGTCAGAGAGA yielded a TetR repression strength of 0.423.
With TCCCACTGAGTATCAGAGA the TetR repression strength was 0.0567.
For TCCCACTGAGTTAAAGAGA, the TetR repression strength was 0.449.
Sequence TCCCAACCAGTGCGCGAGA has a TetR repression strength of 0.16.
In the case of TCCCGGAGAGTACGCGAGA, the TetR repression strength is reported as 0.1.
In the case of TCCCCCATAGTTTACGAGA, the TetR repression strength is reported as 0.364.
TCCCGACCAGTCCTGGAGA showed a TetR repression strength of 0.281.
With TCCCAATGAGTGTAAGAGA the TetR repression strength was 0.314.
TCCCGGTTAGTTACCGAGA was tested, and the TetR repression strength was 0.101.
Work on TCCCATTGAGTTGCAGAGA yielded a TetR repression strength of 0.166.
With TCCCATCTAGTAGTTGAGA the TetR repression strength was 0.161.
TCCCGCGAAGTAACAGAGA showed a TetR repression strength of 0.191.
In the case of TCCCGGTTAGTGGTGGAGA, the TetR repression strength is reported as 0.25.
Work on TCCCAGTGAGTCGCCGAGA yielded a TetR repression strength of 0.0565.
In the case of TCCCGCCTAGTGTCAGAGA, the TetR repression strength is reported as 0.296.
With TCCCTCGGAGTGAAGGAGA the TetR repression strength was 0.156.
In the case of TCCCCGGGAGTACGCGAGA, the TetR repression strength is reported as 0.
TCCCGTAAAGTCGCCGAGA gave a TetR repression strength of 0.047.
In the case of TCCCCTGCAGTAAGAGAGA, the TetR repression strength is reported as 0.268.
With TCCCGTCCAGTGGATGAGA the TetR repression strength was 0.184.
Work on TCCCCCAGAGTCAGGGAGA yielded a TetR repression strength of 0.336.
Sequence TCCCTTATAGTTGCTGAGA has a TetR repression strength of 0.0415.
TCCCTAGAAGTTGGCGAGA showed a TetR repression strength of 0.37.
Work on TCCCGTATAGTGCGTGAGA yielded a TetR repression strength of 0.0622.
Sequence TCCCTAGAAGTGTCGGAGA has a TetR repression strength of 0.152.
For TCCCGATCAGTGGCGGAGA, the TetR repression strength was 0.027.
Sequence TCCCGTAGAGTCGTGGAGA has a TetR repression strength of 0.173.
TCCCGCGCAGTATCCGAGA showed a TetR repression strength of 0.282.
TCCCCACCAGTAGCTGAGA showed a TetR repression strength of 0.329.
TCCCAGGCAGTAAGGGAGA showed a TetR repression strength of 0.0777.
In the case of TCCCAAGTAGTGGTGGAGA, the TetR repression strength is reported as 0.261.
TCCCGCCTAGTCGTCGAGA gave a TetR repression strength of 0.203.
TCCCGGGGAGTACGCGAGA gave a TetR repression strength of 0.23.
Work on TCCCCCGGAGTGGTAGAGA yielded a TetR repression strength of 0.237.
TCCCTTTTAGTAACGGAGA showed a TetR repression strength of 0.222.
In the case of TCCCACTCAGTGTCCGAGA, the TetR repression strength is reported as 0.294.
Work on TCCCTTAGAGTGGTTGAGA yielded a TetR repression strength of 0.393.
TCCCACCGAGTTTGTGAGA gave a TetR repression strength of 0.206.
For TCCCCAGTAGTACAGGAGA, the TetR repression strength was 0.231.
TCCCGGCGAGTCCCGGAGA was tested, and the TetR repression strength was 0.187.
Work on TCCCTGTAAGTTGAAGAGA yielded a TetR repression strength of 0.461.
With TCCCCAGGAGTACAGGAGA the TetR repression strength was 0.417.
TCCCGCGGAGTGGGTGAGA showed a TetR repression strength of 0.212.
TCCCGCGAAGTGCACGAGA was tested, and the TetR repression strength was 0.056.
In the case of TCCCTGAAAGTCTTGGAGA, the TetR repression strength is reported as 0.185.
TCCCGTGGAGTCTCAGAGA gave a TetR repression strength of 0.168.
Work on TCCCGCTGAGTTTCCGAGA yielded a TetR repression strength of 0.128.
Work on TCCCGAGAAGTGGCGGAGA yielded a TetR repression strength of 0.305.
With TCCCAGTTAGTGCCCGAGA the TetR repression strength was 0.338.
TCCCTTAAAGTACAGGAGA gave a TetR repression strength of 0.125.
Sequence TCCCGGAGAGTTCTCGAGA has a TetR repression strength of 0.127.
TCCCTGGGAGTCAATGAGA showed a TetR repression strength of 0.541.
For TCCCGTTCAGTTCGGGAGA, the TetR repression strength was 0.258.
TCCCGGTTAGTTAACGAGA showed a TetR repression strength of 0.185.
TCCCTTGAAGTGTAAGAGA was tested, and the TetR repression strength was 0.117.
TCCCCCGCAGTAGGTGAGA was tested, and the TetR repression strength was 0.174.
TCCCACCCAGTAGCAGAGA showed a TetR repression strength of 0.382.
TCCCTTGTAGTTTGTGAGA showed a TetR repression strength of 0.319.
Work on TCCCAGCGAGTGCGAGAGA yielded a TetR repression strength of 0.275.
TCCCATGAAGTACGCGAGA was tested, and the TetR repression strength was 0.151.
Sequence TCCCCTTAAGTGTACGAGA has a TetR repression strength of 0.333.
TCCCCCTTAGTCGAGGAGA was tested, and the TetR repression strength was 0.392.
In the case of TCCCTGGGAGTGATGGAGA, the TetR repression strength is reported as 0.107.
